{"source": "paper PMC4336329", "about": "(PLoS ONE, 2015)", "note": "The whole screen tested about 310,000 compounds, of which about 2,200 (0.71%) showed an effect of 50% or more. Effects have a minus sign here. This is one part of the list.", "data": [{"biological_target": "human ether-à-go-go-related gene (hERG) potassium channel (human, UniProt Q12809)", "sequence (Q12809 whole entry, looked up)": "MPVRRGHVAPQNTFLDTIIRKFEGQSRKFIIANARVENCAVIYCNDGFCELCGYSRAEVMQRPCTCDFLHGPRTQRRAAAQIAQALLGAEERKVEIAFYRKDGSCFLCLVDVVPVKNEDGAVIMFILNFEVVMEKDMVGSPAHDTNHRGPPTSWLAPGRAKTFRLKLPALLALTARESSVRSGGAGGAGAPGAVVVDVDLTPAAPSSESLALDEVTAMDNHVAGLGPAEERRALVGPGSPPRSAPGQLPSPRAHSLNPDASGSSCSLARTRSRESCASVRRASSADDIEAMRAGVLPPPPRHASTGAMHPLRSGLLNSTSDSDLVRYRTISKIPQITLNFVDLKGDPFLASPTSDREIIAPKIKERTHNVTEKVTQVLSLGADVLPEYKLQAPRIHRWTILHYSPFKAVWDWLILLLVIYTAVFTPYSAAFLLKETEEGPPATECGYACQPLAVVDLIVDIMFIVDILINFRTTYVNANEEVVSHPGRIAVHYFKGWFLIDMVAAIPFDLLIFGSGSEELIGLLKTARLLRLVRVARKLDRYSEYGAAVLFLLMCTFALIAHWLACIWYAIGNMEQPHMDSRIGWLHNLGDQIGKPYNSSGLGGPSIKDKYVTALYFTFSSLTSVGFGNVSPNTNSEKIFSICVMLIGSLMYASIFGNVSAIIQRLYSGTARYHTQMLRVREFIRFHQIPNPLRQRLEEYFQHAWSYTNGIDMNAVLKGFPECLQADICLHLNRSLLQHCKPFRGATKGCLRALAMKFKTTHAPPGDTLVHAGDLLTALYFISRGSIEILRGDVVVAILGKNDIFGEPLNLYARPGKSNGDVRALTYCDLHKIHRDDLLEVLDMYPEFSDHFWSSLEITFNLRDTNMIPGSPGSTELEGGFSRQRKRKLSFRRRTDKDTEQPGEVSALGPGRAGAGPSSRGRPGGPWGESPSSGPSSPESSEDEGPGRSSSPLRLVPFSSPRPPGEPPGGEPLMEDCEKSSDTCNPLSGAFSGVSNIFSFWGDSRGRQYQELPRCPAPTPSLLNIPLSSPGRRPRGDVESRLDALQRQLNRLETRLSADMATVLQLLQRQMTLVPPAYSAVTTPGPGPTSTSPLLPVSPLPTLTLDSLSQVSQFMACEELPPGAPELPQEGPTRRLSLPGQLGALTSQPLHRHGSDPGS", "assay": "primary screen, population patch clamp on CHO cells stably expressing hERG", "units": {"hERG current change (%, negative = inhibition) at 1uM": "%"}, "values": [{"smiles": "Cc1cc2nc(-c3cc(N4CCOCC4)ccc3[N+](=O)[O-])ccn2n1", "hERG current change (%, negative = inhibition) at 1uM": -3.97}, {"smiles": "CCOC(=O)/C(C#N)=C1/C=CNC(=O)N1", "hERG current change (%, negative = inhibition) at 1uM": 7.31}, {"smiles": "Cc1ccsc1C(=O)NNC(=O)COc1ccccc1Cl", "hERG current change (%, negative = inhibition) at 1uM": 12.4}, {"smiles": "CC(NC(=O)NC12CC3CC(CC(C3)C1)C2)C1CCCO1", "note": "(centres unmarked)", "hERG current change (%, negative = inhibition) at 1uM": 9.8}, {"smiles": "CN(C)C(=O)N1CCC(C(=O)N2CCCC(C(=O)c3cccc4ccccc34)C2)CC1", "note": "(centres unmarked)", "hERG current change (%, negative = inhibition) at 1uM": 9.45}, {"smiles": "O=C(O)CC/C(=N\\Nc1ccccc1[N+](=O)[O-])c1cccs1", "hERG current change (%, negative = inhibition) at 1uM": 12.8}, {"smiles": "O=C(Nc1nccs1)c1ccc(NC(=O)C2CC=CCC2C(=O)O)cc1", "note": "(centres unmarked)", "hERG current change (%, negative = inhibition) at 1uM": 5.58}, {"smiles": "C=C(C)C1CC=C(C)/C(=N/NC(=O)CNc2ccc(C)cc2C)C1", "note": "(centres unmarked)", "hERG current change (%, negative = inhibition) at 1uM": 11.4}, {"smiles": "C[C@@]12CCC3[C@@](CCC4[C@@]3(C)CCC[C@@]4(C)C(=O)Nc3ccc(Cl)cc3)(CC1=O)C2", "note": "(some centres unmarked)", "hERG current change (%, negative = inhibition) at 1uM": 4.89}, {"smiles": "COc1ccc(NC(=O)c2cccc(N3C(=O)C4CCC(C)CC4C3=O)c2)c(OC)c1", "note": "(centres unmarked)", "hERG current change (%, negative = inhibition) at 1uM": 3.92}, {"smiles": "Clc1ccc2oc(-c3ccccn3)nc2c1", "hERG current change (%, negative = inhibition) at 1uM": 14.7}, {"smiles": "CCC(C)c1ccccc1N=Cc1ccc2c(c1)OCO2", "note": "(centres unmarked)", "hERG current change (%, negative = inhibition) at 1uM": 7.08}, {"smiles": "Cc1ccc(N(C(=O)c2sc(C)nc2C)C(C(=O)NCc2ccco2)c2ccccc2)cc1", "note": "(centres unmarked)", "hERG current change (%, negative = inhibition) at 1uM": -0.8}, {"smiles": "COc1ccccc1NC(=S)NC1CC2CCC1C2", "note": "(centres unmarked)", "hERG current change (%, negative = inhibition) at 1uM": 11.3}, {"smiles": "CCc1sc(N2C(=O)C3C4CCC(C4=C(C)C)C3C2=O)nc1-c1ccccc1", "note": "(centres unmarked)", "hERG current change (%, negative = inhibition) at 1uM": 0.0275}, {"smiles": "Cc1csc(=Nc2ccccc2)n1CCCN1CCCC1=O", "hERG current change (%, negative = inhibition) at 1uM": 11.5}, {"smiles": "C[C@@H]1CCC[C@@]2(O[C@H](CCO)C[C@@H](O)[C@@H]2O)O1", "hERG current change (%, negative = inhibition) at 1uM": 10.3}, {"smiles": "Cc1csc(NC(=O)CN(C)S(=O)(=O)c2cccc3cccnc23)n1", "hERG current change (%, negative = inhibition) at 1uM": -5.55}, {"smiles": "O=C1OC(/C(=C\\Nc2ccccc2)[N+](=O)[O-])c2ccccc21", "note": "(centres unmarked)", "hERG current change (%, negative = inhibition) at 1uM": 10.6}, {"smiles": "Cl.NC1=NCc2ccccc21", "hERG current change (%, negative = inhibition) at 1uM": 6.42}, {"smiles": "CCN1CCN(C(=O)c2ccc(OC3CCN(CCc4ccccc4)CC3)cc2)[C@@H](C)C1=O", "hERG current change (%, negative = inhibition) at 1uM": 13.3}, {"smiles": "Cc1ccc(C(=O)Nc2ccc(NC(=O)c3cccs3)cc2)c(C)c1", "hERG current change (%, negative = inhibition) at 1uM": 12.3}, {"smiles": "CC(=O)Oc1ccc(/C=N/NC(=O)C2CCCN2S(=O)(=O)c2ccc(Cl)cc2)cc1", "note": "(centres unmarked)", "hERG current change (%, negative = inhibition) at 1uM": 0.349}, {"smiles": "C=CCn1c(O)c(N=NC(=S)Nc2ccccc2C)c2cc(S(=O)(=O)N3CCOCC3)ccc21", "hERG current change (%, negative = inhibition) at 1uM": 9.08}, {"smiles": "COc1ccc(CCCc2nnc(SCC(=O)N/N=C\\c3ccc(O)c(OC)c3)o2)cc1C", "hERG current change (%, negative = inhibition) at 1uM": 15}, {"smiles": "COc1cc(OC)cc(C(=O)NC2=NCCS2)c1", "hERG current change (%, negative = inhibition) at 1uM": 7.38}, {"smiles": "Cc1ccc(C(=O)Oc2ccc(C(=S)N3CCOCC3)cc2)cc1", "hERG current change (%, negative = inhibition) at 1uM": 8.94}, {"smiles": "CCN1CCN(CC(O)COCCOc2ccc(Br)cc2)CC1.Cl", "note": "(centres unmarked)", "hERG current change (%, negative = inhibition) at 1uM": 8.18}, {"smiles": "O=C1CC(Nc2ccc(N3CCOCC3)cc2)C(=O)N1c1cccc(C(F)(F)F)c1", "note": "(centres unmarked)", "hERG current change (%, negative = inhibition) at 1uM": 5.71}, {"smiles": "O=C(NCCCCNC(=O)c1ccc(Br)s1)c1ccc(Br)s1", "hERG current change (%, negative = inhibition) at 1uM": 4.22}, {"smiles": "CCOc1ccc(CCNC(=O)c2nnn(CC(=O)Nc3ccc(C)cc3)c2N)cc1OCC", "hERG current change (%, negative = inhibition) at 1uM": 15.2}, {"smiles": "CCN1CCN(C(=S)NCC2CCCO2)CC1.O=C(O)C(=O)O", "note": "(centres unmarked)", "hERG current change (%, negative = inhibition) at 1uM": 5.97}, {"smiles": "CCc1nnc(NC(=O)CSc2ccc(-c3nc4ccccc4[nH]3)cn2)s1", "hERG current change (%, negative = inhibition) at 1uM": 10.6}, {"smiles": "CCN(CC)c1nc(N)nc(NS(=O)(=O)c2ccc(Cl)cc2)n1", "hERG current change (%, negative = inhibition) at 1uM": -3.13}, {"smiles": "CCOC(=O)C(=Cc1ccc(F)cc1)C(=O)OCC", "hERG current change (%, negative = inhibition) at 1uM": 4.39}, {"smiles": "CC1(C)CC(=O)C(CC2=C(O)CC(C)(C)CC2=O)C(=O)C1", "hERG current change (%, negative = inhibition) at 1uM": 9.74}, {"smiles": "CCOC(=O)/C(=C\\C=C\\c1ccccc1)NC(=O)c1ccccc1", "hERG current change (%, negative = inhibition) at 1uM": -12.1}, {"smiles": "CN(Cc1ccccc1)C(=O)c1ccc(NC(=O)Cc2cccc(NC(=O)C3CCCN(C(=O)C4CCCCC4)C3)c2)cc1", "note": "(centres unmarked)", "hERG current change (%, negative = inhibition) at 1uM": 10.3}, {"smiles": "O=C(Cc1ccccc1[N+](=O)[O-])NNC(=O)c1cccs1", "hERG current change (%, negative = inhibition) at 1uM": 14.2}, {"smiles": "Cn1c(=O)c(Nc2ccc(Cl)cc2)c2c3c(cccc31)C(=O)c1ccccc1-2", "hERG current change (%, negative = inhibition) at 1uM": 14.9}, {"smiles": "Cc1ccc(/C=N/NC(=O)c2cccc(NC(=O)c3ccccc3C)c2)o1", "hERG current change (%, negative = inhibition) at 1uM": -2.6}, {"smiles": "Cc1ccccc1NC(=O)Nc1ccccc1C(N)=O", "hERG current change (%, negative = inhibition) at 1uM": 12.8}, {"smiles": "Cc1nc(N/N=C\\c2ccc3c(c2)OCO3)sc1C", "hERG current change (%, negative = inhibition) at 1uM": 16.4}, {"smiles": "Cc1ccc(NC(=O)c2ccc(S(=O)(=O)N3CCOCC3)cc2)c(C)c1", "hERG current change (%, negative = inhibition) at 1uM": 16.1}]}]}
